# Test results: the supplement of paper PMC8728848
# This is one part of the list.
# B1: CaSRK1 (Capsicum annuum) (protein)
# chain: MALCKIFPFAFILLSCSCYLISGQRFDYPTANLSTTWINSVSAPHSIDYTDGSRIRAILLRGTFGPRYACGFYCNGNCESYLFAIFIVQTNSASQITSPAIGFPQVVWSANRNNPVKINSTLQLTAEGDLVLRDADGTLAWSTNTAGKSVAGLSLTDEGNLALFDSKNATVWQSFDHPTDALVPGQKLVPGMKLTASVSRTNWTAGGLFALSAIDNGLVAFVESNPPQKYFEASVGGSNTSGGSNYVKYLNGSLTLFTHSADTTELILISITPASSAQYMKLESNGHLKVYEWTSRGWREVDDLLTGFRGECNYPTVCGRYGICTMGQCSCPTSSSSRTYFRPIDVRRPSLGCSEVTKLTCQNTKKHSPLEVEDVDYFAFKAGISDTDLNTCKRACLEKCSCKAAFFRSGLNSSRTRGDCYLPTEIFSIMNNEKDRTRYDSVAFIKVQV
# Tests used:
# Experiment in all cases: glycan array binding signal (z-score within array); higher = stronger binding
# Settings in all cases: glycan notation: IUPAC condensed, linker removed
# [1] = target: GlcNAc(b1-3)Gal(b1-4)GlcNAc(b1-3)Gal(b1-4)GlcNAc(b1-2)[GlcNAc(b1-3)Gal(b1-4)GlcNAc(b1-3)Gal(b1-4)GlcNAc(b1-6)]Man(a1-6)[GlcNAc(b1-3)Gal(b1-4)GlcNAc(b1-3)Gal(b1-4)GlcNAc(b1-2)Man(a1-3)]Man(b1-4)GlcNAc(b1-4)[Fuc(a1-6)]GlcNAc
# Method in brief: (§1)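 Columns mapping to the same glycan were averaged after glycan names were converted to IUPAC-condensed notation. The data come from 3228 arrays in the Consortium for Functional Glycomics database, limited to those with an available protein sequence. Binding is reported as a within-array Z-score averaged across arrays of one protein sequence and across linkers.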
# [2] = target: GlcNAc(b1-3)Gal(b1-4)GlcNAc(b1-3)Gal(b1-4)GlcNAc(b1-3)Gal(b1-4)GlcNAc(b1-2)Man(a1-3)[GlcNAc(b1-3)Gal(b1-4)GlcNAc(b1-3)Gal(b1-4)GlcNAc(b1-3)Gal(b1-4)GlcNAc(b1-2)Man(a1-6)]Man(b1-4)GlcNAc(b1-4)GlcNAc
# Method in brief: as §1
# [3] = target: GlcNAc(b1-3)Gal(b1-4)GlcNAc(b1-3)Gal(b1-4)GlcNAc(b1-3)Gal(b1-4)GlcNAc(b1-2)Man(a1-3)[GlcNAc(b1-3)Gal(b1-4)GlcNAc(b1-3)Gal(b1-4)GlcNAc(b1-3)Gal(b1-4)GlcNAc(b1-2)Man(a1-6)]Man(b1-4)GlcNAc(b1-4)[Fuc(a1-6)]GlcNAc
# Method in brief: as §1
# [4] = target: GlcNAc(b1-3)Gal(b1-4)GlcNAc(b1-3)Gal(b1-4)GlcNAc(b1-3)Gal(b1-4)GlcNAc(b1-2)[GlcNAc(b1-3)Gal(b1-4)GlcNAc(b1-3)Gal(b1-4)GlcNAc(b1-3)Gal(b1-4)GlcNAc(b1-6)]Man(a1-6)[GlcNAc(b1-3)Gal(b1-4)GlcNAc(b1-3)Gal(b1-4)GlcNAc(b1-3)Gal(b1-4)GlcNAc(b1-2)Man(a1-3)]Man(b1-4)GlcNAc(b1-4)[Fuc(a1-6)]GlcNAc
# Method in brief: as §1
# [5] = target: GlcNAc(b1-3)Gal(b1-4)GlcNAc(b1-3)Gal(b1-4)GlcNAc(b1-3)Gal(b1-4)GlcNAc(b1-3)Gal(b1-4)GlcNAc(b1-2)Man(a1-3)[GlcNAc(b1-3)Gal(b1-4)GlcNAc(b1-3)Gal(b1-4)GlcNAc(b1-3)Gal(b1-4)GlcNAc(b1-3)Gal(b1-4)GlcNAc(b1-2)Man(a1-6)]Man(b1-4)GlcNAc(b1-4)GlcNAc
# Method in brief: as §1
# [6] = target: GlcNAc(b1-3)Gal(b1-4)GlcNAc(b1-3)Gal(b1-4)GlcNAc(b1-3)Gal(b1-4)GlcNAc(b1-3)Gal(b1-4)GlcNAc(b1-2)Man(a1-3)[GlcNAc(b1-3)Gal(b1-4)GlcNAc(b1-3)Gal(b1-4)GlcNAc(b1-3)Gal(b1-4)GlcNAc(b1-3)Gal(b1-4)GlcNAc(b1-2)Man(a1-6)]Man(b1-4)GlcNAc(b1-4)[Fuc(a1-6)]GlcNAc
# Method in brief: as §1
# [7] = target: GlcNAc(b1-3)Gal(b1-4)GlcNAc(b1-3)Gal(b1-4)GlcNAc(b1-3)Gal(b1-4)GlcNAc(b1-3)Gal(b1-4)GlcNAc(b1-2)[GlcNAc(b1-3)Gal(b1-4)GlcNAc(b1-3)Gal(b1-4)GlcNAc(b1-3)Gal(b1-4)GlcNAc(b1-3)Gal(b1-4)GlcNAc(b1-6)]Man(a1-6)[GlcNAc(b1-3)Gal(b1-4)GlcNAc(b1-3)Gal(b1-4)GlcNAc(b1-3)Gal(b1-4)GlcNAc(b1-3)Gal(b1-4)GlcNAc(b1-2)Man(a1-3)]Man(b1-4)GlcNAc(b1-4)[Fuc(a1-6)]GlcNAc
# Method in brief: as §1
# [8] = target: GlcNAc(b1-3)Gal(b1-4)GlcNAc(b1-3)Gal(b1-4)GlcNAc(b1-3)GalNAc
# Method in brief: as §1
# [9] = target: GlcNAc(b1-3)Gal(b1-4)GlcNAc(b1-3)GalNAc
# Method in brief: as §1
# [10] = target: GlcNAc(b1-3)Gal(b1-4)GlcNAc(b1-3)[GlcNAc(b1-3)Gal(b1-4)GlcNAc(b1-3)]GalNAc
# Method in brief: as §1
# [11] = target: GlcNAc(b1-3)Gal(b1-4)GlcNAc(b1-6)[Gal(b1-3)]GalNAc
# Method in brief: as §1
# [12] = target: GlcNAc(b1-3)Gal(b1-4)GlcNAc(b1-6)[GlcNAc(b1-3)Gal(b1-3)]GalNAc
# Method in brief: as §1
# [13] = target: GlcNAc(b1-3)Gal(b1-4)GlcNAc(b1-6)[GlcNAc(b1-3)]Gal(b1-4)GlcNAc
# Method in brief: as §1
# GlcNAc(b1-3)GalNAc = target: GlcNAc(b1-3)GalNAc
# Method in brief: as §1
# GlcNAc(b1-3)Man = target: GlcNAc(b1-3)Man
# Method in brief: as §1
# [14] = target: GlcNAc(b1-3)[GlcNAc(b1-4)][GlcNAc(b1-6)]GlcNAc
# Method in brief: as §1
# [15] = target: GlcNAc(b1-3)[GlcNAc(b1-6)]Gal(b1-4)GlcNAc
# Method in brief: as §1
# [16] = target: GlcNAc(b1-3)[GlcNAc(b1-6)]GalNAc
# Method in brief: as §1
# [17] = target: GlcNAc(b1-4)Gal(b1-4)GlcNAc
# Method in brief: as §1
# GlcNAc(b1-4)GlcNAc = target: GlcNAc(b1-4)GlcNAc
# Method in brief: as §1
# [18] = target: GlcNAc(b1-4)GlcNAc(b1-4)GlcNAc
# Method in brief: as §1
# [19] = target: GlcNAc(b1-4)GlcNAc(b1-4)GlcNAc(b1-4)GlcNAc(b1-4)GlcNAc
# Method in brief: as §1
# [20] = target: GlcNAc(b1-4)GlcNAc(b1-4)GlcNAc(b1-4)GlcNAc(b1-4)GlcNAc(b1-4)GlcNAc
# Method in brief: as §1
# [21] = target: GlcNAc(b1-4)[GlcNAc(b1-6)]GalNAc
# Method in brief: as §1
# [22] = target: GlcNAc(b1-6)Gal(b1-4)GlcNAc
# Method in brief: as §1
# GlcNAc(b1-6)GalNAc = target: GlcNAc(b1-6)GalNAc
# Method in brief: as §1
# [23] = target: GlcNAc6S(b1-3)Gal(b1-4)GlcNAc
# Method in brief: as §1
# Kdn(a2-3)Gal(b1-3)GalNAc = target: Kdn(a2-3)Gal(b1-3)GalNAc
# Method in brief: as §1
# Kdn(a2-3)Gal(b1-3)GlcNAc = target: Kdn(a2-3)Gal(b1-3)GlcNAc
# Method in brief: as §1
# Kdn(a2-3)Gal(b1-4)Glc = target: Kdn(a2-3)Gal(b1-4)Glc
# Method in brief: as §1
# Kdn(a2-3)Gal(b1-4)GlcNAc = target: Kdn(a2-3)Gal(b1-4)GlcNAc
# Method in brief: as §1
# [24] = target: Kdn(a2-3)Gal(b1-4)[Fuc(a1-3)]GlcNAc
# Method in brief: as §1
# Kdn(a2-6)Gal(b1-4)GlcNAc = target: Kdn(a2-6)Gal(b1-4)GlcNAc
# Method in brief: as §1
# [25] = target: Man(a1-2)Man(a1-2)Man(a1-3)Man
# Method in brief: as §1
# [26] = target: Man(a1-2)Man(a1-2)Man(a1-6)[Man(a1-3)]Man
# Method in brief: as §1
# Man(a1-2)Man(a1-3)Man = target: Man(a1-2)Man(a1-3)Man
# Method in brief: as §1
# [27] = target: Man(a1-2)Man(a1-3)[Man(a1-2)Man(a1-6)]Man
# Method in brief: as §1
# [28] = target: Man(a1-2)Man(a1-3)[Man(a1-2)Man(a1-6)]Man(a1-6)[Man(a1-2)Man(a1-2)Man(a1-3)]Man
# Method in brief: as §1
binder,measurement,setting,value
B1,glycan array binding signal (z-score),[1],-0.125
same,glycan array binding signal (z-score),[2],-0.517
same,glycan array binding signal (z-score),[3],1.07
same,glycan array binding signal (z-score),[4],-0.358
same,glycan array binding signal (z-score),[5],1.35
same,glycan array binding signal (z-score),[6],-0.423
same,glycan array binding signal (z-score),[7],-0.553
same,glycan array binding signal (z-score),[8],-0.477
same,glycan array binding signal (z-score),[9],-0.513
same,glycan array binding signal (z-score),[10],-0.188
same,glycan array binding signal (z-score),[11],-0.043
same,glycan array binding signal (z-score),[12],-0.031
same,glycan array binding signal (z-score),[13],-0.484
same,glycan array binding signal (z-score),GlcNAc(b1-3)GalNAc,-0.476
same,glycan array binding signal (z-score),GlcNAc(b1-3)Man,-0.252
same,glycan array binding signal (z-score),[14],-0.34
same,glycan array binding signal (z-score),[15],-0.584
same,glycan array binding signal (z-score),[16],-0.385
same,glycan array binding signal (z-score),[17],0.409
same,glycan array binding signal (z-score),GlcNAc(b1-4)GlcNAc,0.981
same,glycan array binding signal (z-score),[18],-0.175
same,glycan array binding signal (z-score),[19],0.244
same,glycan array binding signal (z-score),[20],0.204
same,glycan array binding signal (z-score),[21],-0.498
same,glycan array binding signal (z-score),[22],-0.346
same,glycan array binding signal (z-score),GlcNAc(b1-6)GalNAc,-0.338
same,glycan array binding signal (z-score),[23],0.214
same,glycan array binding signal (z-score),Kdn(a2-3)Gal(b1-3)GalNAc,0.159
same,glycan array binding signal (z-score),Kdn(a2-3)Gal(b1-3)GlcNAc,-0.595
same,glycan array binding signal (z-score),Kdn(a2-3)Gal(b1-4)Glc,0.342
same,glycan array binding signal (z-score),Kdn(a2-3)Gal(b1-4)GlcNAc,-0.527
same,glycan array binding signal (z-score),[24],0.155
same,glycan array binding signal (z-score),Kdn(a2-6)Gal(b1-4)GlcNAc,-0.241
same,glycan array binding signal (z-score),[25],-0.147
same,glycan array binding signal (z-score),[26],-0.297
same,glycan array binding signal (z-score),Man(a1-2)Man(a1-3)Man,-0.29
same,glycan array binding signal (z-score),[27],-0.519
same,glycan array binding signal (z-score),[28],-0.515
